Drawing on PubChem BioAssay AID1347073 (National Center for Advancing Translational Sciences (NCATS), 2019), this text covers growth rescue (activation) for 92 molecules.

Hit rate of the full screen: of about 45,000 compounds, about 200 (0.44%) were called active. Another 7% or so got no clear call; they are omitted. Calls follow the shape of the dose curve; as a rule, active = well fitted activation curve with a large enough effect; inconclusive = small, poorly fitted or top-dose-only effect; inactive = no such curve, though single readings can be large or run the other way. This is one part of the list.

A short description of the experiment: qHTS of TDP-43 Inhibitors: NCGC Sytravon Library Screen. Also: 0% is about no effect; nearly all actives have a fitted effect of over 55% in size. The following applies: yeast TDP-43 toxicity rescue, BacTiter-Glo growth, 24 h; at 46.1 µM (top of the series). From the text: The goal of this project is to identify new chemical probes capable of reversing the toxicity associated with TDP-43 which is associated with frontotemporal lobar degeneration and amyotrophic lateral sclerosis. These compounds will provide a complementary approach to deciphering the tangled mechanisms of toxicity and protection that we have uncovered through genome-wide genetic screens and are beginning to uncover in a large-scale proteomics analysis with mass spectroscopy. To this end, a miniaturized assay was developed to be screened against the Molecular Libraries Small Molecule Repository (MLSMR) to discover TDP-43 inhibitors. Please note that in the set-up this yeast-based assay compounds that inhibit as TDP-43, have a read-out as activators. NIH Chemical Genomics Center [NCGC] NIH Molecular Libraries Probe Centers Network [MLPCN] Assay Submitter (PI): Susan Lindquist, Whitehead Institute/MIT MLPCN Grant: R21 NS060957
Dispense 2.5 microL yeast galactose medium per 1536-well plate, pin compound, dispense 2.5 microL TDP-43 expressing yeast in galactose medium at OD600=0.02 (pregrown in raffinose medium to mid-log phase) per well, incubate for 24 hr at 30 deg C, and cell growth will be measured using 5 microL of Bactiter/Glo reagent to entire plate and read using Luminescence Protocol in ViewLux.
Background: Quantitative high-throughput screening tests each substance at several concentrations.
Regarding `CN(C)CC1CCCCC1OC(=O)Cc1ccc(Cl)c([N+](=O)[O-])c1` (configuration not stated), the growth rescue (activation) is inactive: 20.4%. The result for `Cc1cc(N2CCNCC2)nc2ccccc12` reads inactive: 2.09%; that for `C#C[C@]1(O)CCC2C3C(=O)C=C4C=CCC[C@]4(C)C3CC[C@@]21C` (some centres not stated), inactive: 11.6%; that for `C[C@]12CCC3C(CC[C@H]4C[C@H](O)[C@H](O)C[C@]34C)C1CC[C@@H]2O` (some centres not stated), inactive: 16.9%.

For `CN1CCN(Cc2cn3cccnc3n2)CC1`, the growth rescue (activation) was inactive: 5.66%. Then `O=C(Cc1ccccc1)OCC(=O)c1ccc(F)cc1`, with inactive: 22.8%. With `Cc1nc(CCl)cc(=O)[nH]1`, the growth rescue (activation) is inactive: 5.92%. For the molecule `O=c1[nH]c(=O)n(Cc2ccco2)c(O)c1/C=N/N1CCCCC1`, the growth rescue (activation) was inactive: 9.98%. Then `CCCCC/C(=N/O)c1c(C)[nH]c2ccccc12`, with inactive: 28.8%; and `O=C(O)c1ccc(-n2c(O)c(/C=C3\C=Nc4ccccc43)c(=O)[nH]c2=O)cc1`, with inactive: 5.34%. Then `CCN1CCN(S(=O)(=O)c2cnc(Cl)c(Br)c2)CC1`, with inactive: -10.5%; and `CCC(=O)c1ccc(OC(=O)N(C)c2ccccc2)cc1`, with inactive: -1.82%; and `CC(=O)N1CCN(c2ccc([N+](=O)[O-])cc2C=C2C(=O)NC(=O)NC2=O)CC1`, with inactive: -12.2%. Then `C[C@@H]1CC[C@@]2(NC1)O[C@H]1C[C@H]3[C@@H]4CC=C5C[C@@H](O)CC[C@]5(C)[C@H]4CC[C@]3(C)[C@H]1[C@@H]2C`, with inactive: -0.0231%; and `Cc1ccc(-c2nc3ccccc3c(=O)n2-c2ccccn2)cc1`, with inactive: 14.9%. On to `CCOc1ccc(N=Cc2c(O)n(-c3cc(C)cc(C)c3)c(=O)[nH]c2=O)cc1`, for which the growth rescue (activation) was inactive: 4.4%.

For the molecule `O=c1[nH]c(=S)n(-c2ccccc2)c(O)c1C=NCc1ccccn1`, the growth rescue (activation) is inactive: 10.4%.

Turning to `COc1ccc(-c2nn(Cc3ccccc3)cc2C(=O)NC2CC2)cc1OC`, the growth rescue (activation) is inactive: 16.8%.

In the case of `COc1cccc(C(=O)C2CCCN(Cc3ccc4nsnc4c3)C2)c1` (configuration not stated), the growth rescue (activation) is inactive: 13.6%.

With `CC(C)OC12Oc3ccccc3C=C1N1CCC2CC1` (configuration not stated), the growth rescue (activation) is inactive: 6.21%.

With `Cc1cc(/C=C2/C(=O)NC(=O)N(Cc3ccco3)C2=O)c(C)n1-c1ccc(C(=O)O)cc1`, the growth rescue (activation) is inactive: -7.65%. The result for `C[C@]12CCC3C(CC[C@H]4C[C@@H](O)CC[C@]34C)C1CC[C@@H]2OC(=O)[C@H](N)CCCCN` (some centres not stated) reads inactive: -26.9%; that for `C/C(=N\N1CCCCCC1)c1c(O)n(-c2ccc(Cl)cc2)c(=O)[nH]c1=O`, inactive: -7.27%. Then `O=c1[nH]c(=O)n(Cc2ccccc2Cl)c(O)c1/C=C1/C=CC=N1`, with inactive: -20.4%; and `COc1ccc(CN2CCN(C(=O)Cc3ccccc3)CC2)c(OC)c1`, with inactive: 11.8%; and `CCNCCNc1ccc([N+](=O)[O-])c2cccnc12`, with inactive: 8.08%. As to `COCCO[C@H]1CC[C@@]2(C)C(=CCC3C2CC[C@@]2(C)C3CC[C@]2(C)O)C1` (some centres not stated), the growth rescue (activation) is inactive: 3.73%. Then `CC(C)C(=O)NC(Oc1ccccc1Cl)C(Cl)(Cl)Cl` (configuration not stated), with inactive: 8.62%. Then `Cn1c(O)c(/C=C2\C=Nc3ccc(Br)cc32)c(=O)n(C)c1=O`, with inactive: 11.8%. The result for `C[C@]12CCC3C(CC[C@H]4C[C@H](O)CC[C@]34C)C1C[C@H](O)[C@H]2O` (some centres not stated) reads inactive: 21.1%. For the molecule `COC(=O)c1cccc(N=Cc2c(O)n(Cc3ccc(F)cc3)c(=O)[nH]c2=O)c1`, the growth rescue (activation) was inactive: 1.81%. Consider `CCCCn1c(O)c(/C=N/N2CCCCC2c2cccnc2)c(=O)[nH]c1=S` (configuration not stated), for which the growth rescue (activation) is inactive: -2.8%. As for `Cc1cc(C=C2C(=O)NC(=S)NC2=O)c(C)n1C1CCCC1`, the growth rescue (activation) is inactive: 8.65%.

Consider `CC(Cc1ccccc1)NC(=O)Cc1ccc(N(C)C)cc1` (configuration not stated), for which the growth rescue (activation) was inactive: 2.09%. The result for `Cc1nn(Cc2ccccc2)c(Cl)c1C(=O)O` reads inactive: 18%; that for `Cc1ccc(-n2c(O)c(C=Nc3ccc(S(N)(=O)=O)cc3)c(=O)[nH]c2=O)cc1`, inactive: -2.35%; that for `C/C(=N\Nc1ccccc1)c1c(O)[nH]c(=O)[nH]c1=O`, inactive: 2.82%. As to `Cc1nc2ccccn2c1P(=S)(N1CCCCC1)N1CCCCC1`, the growth rescue (activation) is inactive: 18.2%. The result for `COc1ccccc1-n1c(-c2ccccc2Br)nc2ccccc2c1=O` reads inactive: -2.42%; that for `COc1ccc(CCn2c(O)c(C=Nc3ccc(NC(C)=O)cc3)c(=O)[nH]c2=O)cc1OC`, inactive: 4.08%; that for `COc1ccc(CN2CC=C(c3ccc(F)cc3)CC2)cc1Br`, inactive: -8.36%. On to `COc1cc2c(C(=O)O)c(C)n(C)c2cc1Br`, for which the growth rescue (activation) is inactive: 14.1%. Take `O=C(O)c1cn(Cc2ccccc2)nc1-c1ccccc1`: the growth rescue (activation) was inactive: 6.31%. Then `Cc1cccc(-n2c(-c3ccc([N+](=O)[O-])cc3)nc3ccccc3c2=O)c1`, with inactive: 9.6%; and `c1ccc(-c2[nH]c(-c3ccccc3)[n+](CC3CO3)c2-c2ccccc2)cc1` (configuration not stated), with inactive: 22.7%. As for `CCCCN(Cc1ccccc1)C1CCN(CCc2ccccc2)CC1`, the growth rescue (activation) was inactive: -0.443%. As for `CCC12CN3CC(CC)(CN(C1)C3c1cccnc1)C2=O` (configuration not stated), the growth rescue (activation) is inactive: 29.2%. Then `CCc1ccc(CN2CCN(Cc3cc(Br)ccc3O)CC2)cc1`, with inactive: -16.8%; and `CN1c2ccc([N+](=O)[O-])cc2CC2(C(=O)NC(=O)N(c3ccccc3)C2=O)C1c1ccccc1` (configuration not stated), with inactive: 9.61%; and `Cc1ccc(-n2c(C)cc(/C=C3\C(=O)NC(=O)N(C)C3=O)c2C)cc1C`, with inactive: 22.3%. `COc1cc(C(=O)N/N=C/C23CC[C@@H](O)CC2(O)CC[C@@H]2[C@@H]3CCC3(C)C(C4=CC(=O)OC4)CCC23O)ccc1O` (some centres not stated): the growth rescue (activation) was inactive: 12.6%. Then `Cc1ccccc1-n1c(/C=C/c2ccccc2F)nc2ccccc2c1=O`, with inactive: 6.33%. Regarding `COc1ccc(C2N(c3cc(C)on3)C(=O)C3CCCN32)cc1` (configuration not stated), the growth rescue (activation) is inactive: -14.6%. For `C[C@]12CCC3C(CCC4=C/C(=N/OCC(=O)NC(CCC(=O)O)C(=O)O)CC[C@@]43C)C1CCC2O` (some centres not stated), the growth rescue (activation) is inactive: 10.7%. The result for `Cc1cc(=O)oc2cc(OCC(=O)N3CCN(Cc4ccccc4)CC3)ccc12` reads inactive: 1.76%; that for `O=c1c2ccccc2nc(Cc2ccccc2)n1-c1ccc(O)cc1`, inactive: -8.69%; that for `C=CCn1c(O)c(C(C)=NC2CC2)c(=O)[nH]c1=O`, inactive: -19.1%. `Brc1cc2c(cc1CN1CCN(c3ccccc3)CC1)OCCO2`: the growth rescue (activation) was inactive: 13.1%. As to `N#Cc1c(N2CCNCC2)nc(-c2ccco2)c2c1CCCC2`, the growth rescue (activation) was inactive: 0.21%.

Regarding `CN(C)C1(CNC(=O)Cc2ccccc2F)CCCCC1`, the growth rescue (activation) is inactive: 9.31%. Then `COc1ccc(-n2c(/C=C3\C(=O)Nc4ccccc43)nc3ccccc3c2=O)cc1`, with inactive: -2.5%; and `COc1ccccc1OCC(=O)N1CCCC(N2CCN(c3ccc(F)cc3)CC2)C1` (configuration not stated), with inactive: 12.4%.

Take `O=C(Cn1ccc2ccccc2c1=O)NCC(=O)N1CCC2(CC1)OCCO2`: the growth rescue (activation) is inactive: 10.1%. Take `CCOC(=O)C1(c2ccccc2)CCN(CC(=O)Nc2ccc(C)cc2)CC1`: the growth rescue (activation) is inactive: 6.89%. Then `O=C1NC(=O)C(=Cc2ccc(N3CCOCC3)o2)C(=O)N1`, with inactive: 8.94%; and `O=c1c2ccccc2nc(-c2ccccc2)n1-c1ccc(O)cc1`, with inactive: -3.34%. The result for `CN(C(=O)Oc1ccc(C(=O)c2ccc(Cl)cc2)cc1)c1ccccc1` reads inactive: 12.9%; that for `CCc1ccc(CN2CCN(C(=O)Cc3ccccc3)CC2)cc1`, inactive: 4.63%.

As to `O=C1NC(=O)C(=Cc2ccc(N3CCOCC3)cc2)C(=O)N1`, the growth rescue (activation) was inactive: 6.16%.

For the molecule `Cc1ccsc1C(=O)C1CCCN(Cc2cccc(OCCO)c2)C1` (configuration not stated), the growth rescue (activation) was inactive: 10.2%.

As to `N#CC1=C(N)Oc2cc(O)ccc2C1c1ccc2c(c1)OCO2` (configuration not stated), the growth rescue (activation) was inactive: -15.1%.

In the case of `C[C@]12C[C@@H](O)[C@H](O)CC1=CCC1C2CC[C@]2(C)C(=O)CCC12` (some centres not stated), the growth rescue (activation) is inactive: 31.8%. On to `N#Cc1ccccc1OCC(=O)N1CCN(CC(=O)Nc2ccc(F)cc2)CC1`, for which the growth rescue (activation) is inactive: 18.2%. Regarding `CN(C)c1ccc(/C=C/[N+](=O)[O-])cc1`, the growth rescue (activation) was inactive: -4.59%. With `COc1ccc(CNCCc2c[nH]c3ccccc23)c(OC)c1OC`, the growth rescue (activation) was inactive: 7.63%. The result for `O=C(c1cccc2ccccc12)C1CCCN(Cc2ccon2)C1` (configuration not stated) reads inactive: 17.2%. Then `O=C(Nc1cccc(OC(=O)N2CCCCC2)c1)N1CCCCC1`, with inactive: 2.44%; and `O=c1[nH]c(=O)n(-c2cccc(F)c2)c(O)c1/C=C1\C=Nc2ccccc21`, with inactive: 3.9%. Then `COc1cc2c(c(OC)c1OC)-c1ccc(O)c(=O)cc1C(NC(C)=O)CC2` (configuration not stated), with inactive: 11.5%; and `Cc1cccc2c(CCN)c[nH]c12`, with inactive: 6.61%.

`COc1ccc(CNCCc2c(C)[nH]c3ccc(OC(F)(F)F)cc23)c(OC)c1`: the growth rescue (activation) is inactive: -13.7%. Then `COc1cc(C)cc(CN2CC=C(c3ccccc3)CC2)c1O`, with inactive: 9.04%.

For the molecule `O=[N+]([O-])c1ccc(NC2CCN(Cc3ccccc3)CC2)c2ccncc12`, the growth rescue (activation) is inactive: -2.96%.

As for `O=c1[nH]c(=O)n(Cc2ccco2)c(O)c1C=NC1CCN(Cc2ccccc2)CC1`, the growth rescue (activation) is inactive: -8.39%.

`Cc1ccccc1CN1CCNCC1`: the growth rescue (activation) is inactive: 2.71%. Then `Nc1ccc(CC(N)c2csc(Nc3ncccn3)n2)cc1` (configuration not stated), with inactive: 3.09%; and `N=C1c2ccccc2CN1c1ccc(F)c([N+](=O)[O-])c1`, with inactive: 22%.

In the case of `CCOP(=O)(OCC)c1cc(CC)ccc1O`, the growth rescue (activation) is inactive: 9.56%.

Turning to `Cc1cc(/C=C2\C(=O)NC(=O)N(Cc3ccco3)C2=O)c(C)n1-c1ccc(C(=O)O)cc1`, the growth rescue (activation) is inactive: 5.88%. The result for `C[C@]12CCC3C(CC[C@@H]4C[C@@H](O)CC[C@]34C)C1CC[C@@H]2O` (some centres not stated) reads inactive: 22.8%; that for `CCn1cc(C=C2C(=O)NC(=O)NC2=O)c2ccccc21`, inactive: 9.89%. Then `CN1CCN2c3ccc(N)cc3CC3(C(=O)NC(=O)NC3=O)C2C1` (configuration not stated), with inactive: -4.72%.
